# Assay results reported in the supplement of paper PMC8728848.
# The other results are listed elsewhere or left out.
# Assays:
# Assay in all cases: glycan array binding signal (z-score within array); higher = stronger binding
# Settings in all cases: glycan notation: IUPAC condensed, linker removed
# Gal3S6S(b1-4)GlcNAc = biological target: Gal3S6S(b1-4)GlcNAc
# Outline: (§1)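 Columns mapping to the same glycan were averaged after glycan names were converted to IUPAC-condensed notation. The data come from 3228 arrays in the Consortium for Functional Glycomics database, limited to those with an available protein sequence. Binding is reported as a within-array Z-score averaged across arrays of one protein sequence and across linkers.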
# Gal3S6S(b1-4)GlcNAc6S = biological target: Gal3S6S(b1-4)GlcNAc6S
# Outline: as §1
# Gal4S(b1-4)GlcNAc = biological target: Gal4S(b1-4)GlcNAc
# Outline: as §1
# Gal4S6S(b1-4)GlcNAc = biological target: Gal4S6S(b1-4)GlcNAc
# Outline: as §1
# Gal6P(b1-4)GlcNAc = biological target: Gal6P(b1-4)GlcNAc
# Outline: as §1
# Gal6S(b1-3)GlcNAc = biological target: Gal6S(b1-3)GlcNAc
# Outline: as §1
# Gal6S(b1-3)GlcNAc6S = biological target: Gal6S(b1-3)GlcNAc6S
# Outline: as §1
# Gal6S(b1-4)Glc = biological target: Gal6S(b1-4)Glc
# Outline: as §1
# Gal6S(b1-4)Glc6S = biological target: Gal6S(b1-4)Glc6S
# Outline: as §1
# Gal6S(b1-4)GlcNAc = biological target: Gal6S(b1-4)GlcNAc
# Outline: as §1
# Gal6S(b1-4)GlcNAc6S = biological target: Gal6S(b1-4)GlcNAc6S
# Outline: as §1
# GalNAc(a1-3)Gal = biological target: GalNAc(a1-3)Gal
# Outline: as §1
# GalNAc(a1-3)GalNAc = biological target: GalNAc(a1-3)GalNAc
# Outline: as §1
# [1] = biological target: GalNAc(a1-3)GalNAc(a1-3)Gal(a1-4)Gal(b1-4)GlcNAc
# Outline: as §1
# [2] = biological target: GalNAc(a1-3)GalNAc(b1-3)Gal(a1-4)Gal(b1-4)Glc
# Outline: as §1
# GalNAc(b1-3)Gal = biological target: GalNAc(b1-3)Gal
# Outline: as §1
# [3] = biological target: GalNAc(b1-3)Gal(a1-4)Gal(b1-4)GlcNAc
# Outline: as §1
# [4] = biological target: GalNAc(b1-3)Gal(a1-4)Gal(b1-4)GlcNAc(b1-3)Gal(b1-4)Glc
# Outline: as §1
# [5] = biological target: GalNAc(b1-3)Gal(a1-6)Gal(b1-4)Glc
# Outline: as §1
# GalNAc(b1-3)GalNAc = biological target: GalNAc(b1-3)GalNAc
# Outline: as §1
# GalNAc(b1-3)GlcNAc = biological target: GalNAc(b1-3)GlcNAc
# Outline: as §1
# GalNAc(b1-4)Gal(b1-4)Glc = biological target: GalNAc(b1-4)Gal(b1-4)Glc
# Outline: as §1
# GalNAc(b1-4)GlcNAc = biological target: GalNAc(b1-4)GlcNAc
# Outline: as §1
# [6] = biological target: GalNAc(b1-4)GlcNAc(b1-2)Man
# Outline: as §1
# [7] = biological target: GalNAc(b1-4)GlcNAc(b1-2)Man(a1-3)[GalNAc(b1-4)GlcNAc(b1-2)Man(a1-6)]Man(b1-4)GlcNAc(b1-4)GlcNAc
# Outline: as §1
# [8] = biological target: GalNAc(b1-4)GlcNAc(b1-3)GalNAc(b1-4)GlcNAc
# Outline: as §1
# GalNAc(b1-4)GlcNAc6S = biological target: GalNAc(b1-4)GlcNAc6S
# Outline: as §1
# GalNAc(b1-6)GalNAc = biological target: GalNAc(b1-6)GalNAc
# Outline: as §1
# GalNAc3S(b1-4)GlcNAc = biological target: GalNAc3S(b1-4)GlcNAc
# Outline: as §1
# GalNAc3S(b1-4)GlcNAc3S = biological target: GalNAc3S(b1-4)GlcNAc3S
# Outline: as §1
# [9] = biological target: GalNAc3S(b1-4)[Fuc(a1-3)]GlcNAc
# Outline: as §1
# GalNAc4S6S(b1-4)GlcNAc = biological target: GalNAc4S6S(b1-4)GlcNAc
# Outline: as §1
# GalNAc6S(b1-4)GlcNAc = biological target: GalNAc6S(b1-4)GlcNAc
# Outline: as §1
# Glc(a1-4)Glc = biological target: Glc(a1-4)Glc
# Outline: as §1
# [10] = biological target: Glc(a1-4)Glc(a1-4)Glc(a1-4)Glc
# Outline: as §1
# Glc(a1-6)Glc(a1-6)Glc = biological target: Glc(a1-6)Glc(a1-6)Glc
# Outline: as §1
# [11] = biological target: Glc(a1-6)Glc(a1-6)Glc(a1-6)Glc
# Outline: as §1
# Glc(b1-4)Glc = biological target: Glc(b1-4)Glc
# Outline: as §1
# Glc(b1-6)Glc = biological target: Glc(b1-6)Glc
# Outline: as §1
# GlcA(b1-3)Gal = biological target: GlcA(b1-3)Gal
# Outline: as §1
# GlcA(b1-3)GlcNAc = biological target: GlcA(b1-3)GlcNAc
# Outline: as §1
# GlcA(b1-6)Gal = biological target: GlcA(b1-6)Gal
# Outline: as §1
# [12] = biological target: GlcA3S(b1-3)Gal(b1-4)GlcNAc(b1-2)Man
# Outline: as §1
# [13] = biological target: GlcA3S(b1-3)Gal(b1-4)GlcNAc(b1-3)Gal(b1-4)Glc
# Outline: as §1
# [14] = biological target: GlcNAc(a1-3)Gal(b1-4)GlcNAc
# Outline: as §1
binder,measurement,setting,value
HHA (Hippeastrum hybrid) (protein) MQQDCNLVLYDVDKPIWASNTGGLARDCHLNMQSDGNLVVYAPRNQVIWASNTQGENGNYVCILQKDRNVVIYGTARWATGTNIHGAGIVGVPGSAPQNTTAEMIKLVRKYLITK,glycan array binding signal (z-score),Gal3S6S(b1-4)GlcNAc,-0.208
same,glycan array binding signal (z-score),Gal3S6S(b1-4)GlcNAc6S,-0.218
same,glycan array binding signal (z-score),Gal4S(b1-4)GlcNAc,-0.205
same,glycan array binding signal (z-score),Gal4S6S(b1-4)GlcNAc,-0.212
same,glycan array binding signal (z-score),Gal6P(b1-4)GlcNAc,-0.226
same,glycan array binding signal (z-score),Gal6S(b1-3)GlcNAc,-0.225
same,glycan array binding signal (z-score),Gal6S(b1-3)GlcNAc6S,-0.215
same,glycan array binding signal (z-score),Gal6S(b1-4)Glc,-0.207
same,glycan array binding signal (z-score),Gal6S(b1-4)Glc6S,-0.2
same,glycan array binding signal (z-score),Gal6S(b1-4)GlcNAc,-0.218
same,glycan array binding signal (z-score),Gal6S(b1-4)GlcNAc6S,-0.217
same,glycan array binding signal (z-score),GalNAc(a1-3)Gal,-0.216
same,glycan array binding signal (z-score),GalNAc(a1-3)GalNAc,-0.215
same,glycan array binding signal (z-score),[1],-0.206
same,glycan array binding signal (z-score),[2],-0.196
same,glycan array binding signal (z-score),GalNAc(b1-3)Gal,-0.21
same,glycan array binding signal (z-score),[3],-0.191
same,glycan array binding signal (z-score),[4],-0.203
same,glycan array binding signal (z-score),[5],-0.203
same,glycan array binding signal (z-score),GalNAc(b1-3)GalNAc,1.25
same,glycan array binding signal (z-score),GalNAc(b1-3)GlcNAc,-0.21
same,glycan array binding signal (z-score),GalNAc(b1-4)Gal(b1-4)Glc,-0.199
same,glycan array binding signal (z-score),GalNAc(b1-4)GlcNAc,-0.162
same,glycan array binding signal (z-score),[6],-0.213
same,glycan array binding signal (z-score),[7],-0.099
same,glycan array binding signal (z-score),[8],-0.211
same,glycan array binding signal (z-score),GalNAc(b1-4)GlcNAc6S,-0.209
same,glycan array binding signal (z-score),GalNAc(b1-6)GalNAc,-0.218
same,glycan array binding signal (z-score),GalNAc3S(b1-4)GlcNAc,-0.201
same,glycan array binding signal (z-score),GalNAc3S(b1-4)GlcNAc3S,-0.223
same,glycan array binding signal (z-score),[9],-0.214
same,glycan array binding signal (z-score),GalNAc4S6S(b1-4)GlcNAc,-0.218
same,glycan array binding signal (z-score),GalNAc6S(b1-4)GlcNAc,-0.209
same,glycan array binding signal (z-score),Glc(a1-4)Glc,-0.204
same,glycan array binding signal (z-score),[10],-0.2
same,glycan array binding signal (z-score),Glc(a1-6)Glc(a1-6)Glc,-0.205
same,glycan array binding signal (z-score),[11],-0.187
same,glycan array binding signal (z-score),Glc(b1-4)Glc,-0.214
same,glycan array binding signal (z-score),Glc(b1-6)Glc,-0.203
same,glycan array binding signal (z-score),GlcA(b1-3)Gal,-0.198
same,glycan array binding signal (z-score),GlcA(b1-3)GlcNAc,-0.211
same,glycan array binding signal (z-score),GlcA(b1-6)Gal,-0.203
same,glycan array binding signal (z-score),[12],-0.214
same,glycan array binding signal (z-score),[13],-0.214
same,glycan array binding signal (z-score),[14],-0.2
